# Experimental data as given in the supplement of paper PMC8728848.
# Some of the results follow.
# B1: Crocus Lectin (Crocus vernus), Q9FVA1 (protein)
# chain: MAKSLVLSSLLLALLLAAPLASLADNNVLLTGDVLHTDNQLSFESAAFVMQGDCNLVLYNEAGGFQSNTHGRGVGCTLRLNNFGQLEIHSANSNTPVWVSLRNGIPVRGDYAAVLGPDQHVTIYGPAIWSTPAPNRHERGATVSNIPRVRNVLFSSQVMSDNAQLATRDYSLVMRDDCNLALTKGSKTNIVWESGTSGRGQHCFMRLGHTGLIEISDDRLNTVWRSNTVGQEGDYVLILQINGQAVVYGPAVWSTASPARGGASAAL
# Experiments:
# Assay in all cases: glycan array binding signal (z-score within array); higher = stronger binding
# Conditions in all cases: glycan notation: IUPAC condensed, linker removed
# [1] = target: Neu5Ac(a2-3)Gal(b1-4)GlcNAc
# Outline: (§1)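 Negative Z-scores can be read as non-binding. The Z-score is calculated within each array and then averaged across arrays of one protein sequence at different concentrations or buffers and across linkers. Arrays, 3228 in all, were curated from the Consortium for Functional Glycomics database and kept only where the protein sequence was available.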
# [2] = target: Neu5Ac(a2-3)Gal(b1-4)GlcNAc(b1-3)Gal(b1-4)GlcNAc
# Outline: as §1
# [3] = target: Neu5Ac(a2-3)Gal(b1-4)GlcNAc(b1-3)Gal(b1-4)GlcNAc(b1-3)Gal(b1-4)GlcNAc
# Outline: as §1
# [4] = target: Neu5Ac(a2-3)Gal(b1-4)GlcNAc(b1-3)Gal(b1-4)[Fuc(a1-3)]GlcNAc
# Outline: as §1
# [5] = target: Neu5Ac(a2-3)Gal(b1-4)GlcNAc6S
# Outline: as §1
# [6] = target: Neu5Ac(a2-3)Gal(b1-4)[Fuc(a1-3)]GlcNAc
# Outline: as §1
# [7] = target: Neu5Ac(a2-3)Gal(b1-4)[Fuc(a1-3)]GlcNAc(b1-3)Gal
# Outline: as §1
# [8] = target: Neu5Ac(a2-3)Gal(b1-4)[Fuc(a1-3)]GlcNAc(b1-3)Gal(b1-4)GlcNAc
# Outline: as §1
# [9] = target: Neu5Ac(a2-3)Gal(b1-4)[Fuc(a1-3)]GlcNAc(b1-3)Gal(b1-4)[Fuc(a1-3)]GlcNAc(b1-3)Gal(b1-4)[Fuc(a1-3)]GlcNAc
# Outline: as §1
# [10] = target: Neu5Ac(a2-3)Gal(b1-4)[Fuc(a1-3)]GlcNAc6S
# Outline: as §1
# [11] = target: Neu5Ac(a2-3)Gal6S(b1-4)GlcNAc
# Outline: as §1
# [12] = target: Neu5Ac(a2-3)Gal6S(b1-4)[Fuc(a1-3)]GlcNAc
# Outline: as §1
# Neu5Ac(a2-3)GalNAc = target: Neu5Ac(a2-3)GalNAc
# Outline: as §1
# [13] = target: Neu5Ac(a2-3)GalNAc(b1-4)GlcNAc
# Outline: as §1
# [14] = target: Neu5Ac(a2-3)[GalNAc(b1-4)]Gal(b1-4)Glc
# Outline: as §1
# [15] = target: Neu5Ac(a2-3)[GalNAc(b1-4)]Gal(b1-4)GlcNAc
# Outline: as §1
# [16] = target: Neu5Ac(a2-3)[Neu5Ac(a2-6)]GalNAc
# Outline: as §1
# [17] = target: Neu5Ac(a2-6)Gal(b1-4)GlcNAc
# Outline: as §1
# [18] = target: Neu5Ac(a2-6)Gal(b1-4)GlcNAc(b1-2)Man(a1-3)[Neu5Ac(a2-6)Gal(b1-4)GlcNAc(b1-2)Man(a1-6)]Man(b1-4)GlcNAc(b1-4)GlcNAc
# Outline: as §1
# [19] = target: Neu5Ac(a2-6)Gal(b1-4)GlcNAc(b1-3)Gal(b1-4)GlcNAc
# Outline: as §1
# [20] = target: Neu5Ac(a2-6)Gal(b1-4)GlcNAc(b1-3)Gal(b1-4)[Fuc(a1-3)]GlcNAc(b1-3)Gal(b1-4)[Fuc(a1-3)]GlcNAc
# Outline: as §1
# [21] = target: Neu5Ac(a2-6)Gal(b1-4)GlcNAc6S
# Outline: as §1
# Neu5Ac(a2-6)GalNAc = target: Neu5Ac(a2-6)GalNAc
# Outline: as §1
# [22] = target: Neu5Ac(a2-6)GalNAc(b1-4)GlcNAc
# Outline: as §1
# Neu5Ac(a2-8)Neu5Ac = target: Neu5Ac(a2-8)Neu5Ac
# Outline: as §1
# [23] = target: Neu5Ac(a2-8)Neu5Ac(a2-3)Gal(b1-4)Glc
# Outline: as §1
# [24] = target: Neu5Ac(a2-8)Neu5Ac(a2-3)[GalNAc(b1-4)]Gal(b1-4)Glc
# Outline: as §1
# [25] = target: Neu5Ac(a2-8)Neu5Ac(a2-8)Neu5Ac
# Outline: as §1
# [26] = target: Neu5Ac(a2-8)Neu5Ac(a2-8)Neu5Ac(a2-3)Gal(b1-4)Glc
# Outline: as §1
# [27] = target: Neu5Ac(a2-8)Neu5Ac(a2-8)Neu5Ac(a2-3)[GalNAc(b1-4)]Gal(b1-4)Glc
# Outline: as §1
# [28] = target: Neu5Ac(a2-8)Neu5Ac(a2-8)Neu5Ac(a2-8)Neu5Ac(a2-3)[GalNAc(b1-4)]Gal(b1-4)Glc
# Outline: as §1
# [29] = target: Neu5Ac9Ac(a2-6)Gal(b1-4)GlcNAc
# Outline: as §1
# [30] = target: Neu5Gc(a2-3)Gal(b1-3)GlcNAc
# Outline: as §1
# [31] = target: Neu5Gc(a2-3)Gal(b1-3)[Fuc(a1-4)]GlcNAc
# Outline: as §1
# Neu5Gc(a2-3)Gal(b1-4)Glc = target: Neu5Gc(a2-3)Gal(b1-4)Glc
# Outline: as §1
# [32] = target: Neu5Gc(a2-3)Gal(b1-4)GlcNAc
# Outline: as §1
# [33] = target: Neu5Gc(a2-3)Gal(b1-4)[Fuc(a1-4)]GlcNAc
# Outline: as §1
# [34] = target: Neu5Gc(a2-6)Gal(b1-4)GlcNAc
# Outline: as §1
# Neu5Gc(a2-6)GalNAc = target: Neu5Gc(a2-6)GalNAc
# Outline: as §1
binder,measurement,setting,value
B1,glycan array binding signal (z-score),[1],-0.16
same,glycan array binding signal (z-score),[2],-0.166
same,glycan array binding signal (z-score),[3],-0.202
same,glycan array binding signal (z-score),[4],-0.137
same,glycan array binding signal (z-score),[5],-0.177
same,glycan array binding signal (z-score),[6],-0.195
same,glycan array binding signal (z-score),[7],-0.183
same,glycan array binding signal (z-score),[8],-0.17
same,glycan array binding signal (z-score),[9],-0.152
same,glycan array binding signal (z-score),[10],-0.195
same,glycan array binding signal (z-score),[11],-0.187
same,glycan array binding signal (z-score),[12],-0.197
same,glycan array binding signal (z-score),Neu5Ac(a2-3)GalNAc,-0.173
same,glycan array binding signal (z-score),[13],-0.181
same,glycan array binding signal (z-score),[14],-0.157
same,glycan array binding signal (z-score),[15],-0.181
same,glycan array binding signal (z-score),[16],-0.189
same,glycan array binding signal (z-score),[17],-0.178
same,glycan array binding signal (z-score),[18],-0.049
same,glycan array binding signal (z-score),[19],-0.174
same,glycan array binding signal (z-score),[20],-0.119
same,glycan array binding signal (z-score),[21],-0.168
same,glycan array binding signal (z-score),Neu5Ac(a2-6)GalNAc,-0.179
same,glycan array binding signal (z-score),[22],-0.186
same,glycan array binding signal (z-score),Neu5Ac(a2-8)Neu5Ac,-0.194
same,glycan array binding signal (z-score),[23],-0.184
same,glycan array binding signal (z-score),[24],-0.184
same,glycan array binding signal (z-score),[25],-0.172
same,glycan array binding signal (z-score),[26],-0.123
same,glycan array binding signal (z-score),[27],-0.176
same,glycan array binding signal (z-score),[28],-0.197
same,glycan array binding signal (z-score),[29],-0.167
same,glycan array binding signal (z-score),[30],-0.2
same,glycan array binding signal (z-score),[31],-0.16
same,glycan array binding signal (z-score),Neu5Gc(a2-3)Gal(b1-4)Glc,-0.203
same,glycan array binding signal (z-score),[32],-0.173
same,glycan array binding signal (z-score),[33],-0.185
same,glycan array binding signal (z-score),[34],-0.194
same,glycan array binding signal (z-score),Neu5Gc(a2-6)GalNAc,-0.197
